# Test results taken from the RNAGym collection of RNA variant scans (doi:10.7554/elife.90254).
# Read counts are not given, so values of variants with three or more changes are uncertain.
# B1: LINE1-mini (parent)
# chain: GGCAGAGCUCAACACAGCGUGGCAAAGUGGCUGUGGCUAGACUGCC
# Variants of: B1
# Assay: self-cleavage, relative activity (ratio to wild type); higher = more cleavage; in vitro, sequencing; the parent is a self-cleaving ribozyme
row,Variant,self-cleavage
1,A24U U28A G30U G36U,0.22
2,A24U G27U C37U,0.05
3,A24G G30C C37U C42U,0.09
4,A24U U28G C37G,0.01
5,A24U A26G U34A U43C,0.04
6,A25C G27A U32G G36A,0.05
7,A24G G35A A39C,0.03
8,A25C U34A C42U,0
9,A25G G29U A41U,0.26
10,A25C G35U A39C,0.11
11,A25G C37G G44U,0.02
12,A24U U43C C46U,0.13
13,A25C G35U A41C,0.02
14,A24U G29U G30U C31U,1.09
15,A25C G33U C42U,0.03
16,A24U C31A G35U G40U,0.03
17,A25G A26G A41G U43C,0.01
18,A24U G30U U43G,0
19,A24U G29A C31A G33C,0.01
20,A24U G27A U38G,0
21,A24U U34G C42A U43C,0.05
22,A25G A26U G33A U38G,0.02
23,A25C G29U C31G C42G,0.01
24,A24U G35C A41C,0.03

row,Variant,self-cleavage
1,A25G G40A A41C,0.03
2,A24U A26G G29C,0.34
3,A24U C31A A39C A41U,0.02
4,A25G G29C G30A A41G,0.11
5,A25C G36A G44A,0.04
6,A24U A39G C46A,0.08
7,A24U G33C G40A,0.05
8,A25C A39U G40A,0.09
9,A25G C42G C46A,0
10,A25C G36U A39U,0.31
11,A25G G29A U34C G35A,0.11
12,A24U G29U G36C C37G,0.04
13,A25G G40C C45A,0.07
14,A25C A26C C45U,0.14
15,A24U G27U A41G G44C,0.01
16,A24U G33C U34G,0.01
17,A25C U43C C46A,0.11
18,A25G C31A C42G,0.14
19,A25C U38G G40A,0
20,A24G U43A G44A,0.05
21,A25G A26G U28A G40A,0.23
22,A24U U32G C42A,0.08
23,A24U G33A A39U G40U,0.06
24,A25G G33C U43G,0.05

row,Variant,self-cleavage
1,A24U A25U G29C G40A A41G,0.11
2,A25C G29U C45U,0.14
3,A24G G36A G40U G44C,0.03
4,A25G G33A C45A,0.04
5,A24U G40A C42G G44C,0.06
6,A24G G29U G33C G36A A39G,0
7,A25G G36C C42G G44C,0.04
8,A25C U32A U34G C37G C42U,0.03
9,A24U A41C C42U,0.08
10,A24U A26C G33U U34G G40U,0.03
11,A25C G30C G44A,0.1
12,A24U G27U G30C,1.72
13,A24U G27A U32A,0.08
14,A24G G30U C31U,0.03
15,A25C U32C C45G,0.02
16,A24U G29U C37A U43A C46U,0.04
17,A24U G30U C31A U34C,0.21
18,A24U G27C G33U,0.08
19,A24U G33A G35C,0.03
20,A24U G36C C37G,0.07
21,A25C U32A A41U,0.01
22,A24G U34C C37U,0.05
23,A24U A39U C46A,0.58
24,A25C A26C C37G A39G C42U,0.05

row,Variant,self-cleavage
1,A25G G29A G33A,0.2
2,A25G G35C U43G,0.01
3,A25G A41C U43C,0.04
4,A25C G27U G44U,0.13
5,A25C G30C C31A G33U U34C C37U A39G C46A,0.01
6,A24U G33U G35C,0.02
7,A25C G44A C46U,0.06
8,A25C A26G G35A U38A,0.02
9,A25C G36A U38A C42G,0
10,A24U G30U G35C U38C C42U,0.06
11,A24U G30U C42G,0.04
12,A25G A26C G44U C45A,0.13
13,A24U G27A C46G,1.53
14,A24U U32A C45G,0.02
15,A25C G44U C45A,0.03
16,A24U A26C G27U C37A U38C A41G,0.03
17,A24U A26G G30C,2.96
18,A25C G36A A39C,0.12
19,A24U U28G G33U,0.03
20,A24U G35U G40U,0.04
21,A25G G33A G40A,0.04
22,A24G U32A U34A,0.04
23,A24G U32G C37A U43A,0.02
24,A25C G27A U34G C45U,0.11

row,Variant,self-cleavage
1,A25G G27A G35U,0.09
2,A25C C31A C46U,0.13
3,A24U G30C C46A,1.97
4,A25C G27A C37U,0.08
5,A25G G33U U38C,0.2
6,A24U G30C G36U G40U,0.07
7,A24G U28G C45U,1.08
8,A24U G30A C31A G44U,0.02
9,A24U G27U U32G G35C A39G C45U C46U,0.14
10,A25G A26U C46G,0.13
11,A24G G36C C42A,0.06
12,A25G C31A C37G G44C,0.05
13,A25G G27C G29U G30U,0.08
14,A25C G27A C31U G33C C46A,0.05
15,A25G G29A G35U,0.09
16,A24U U43A G44A,0.08
17,A25C G29A C42A,0.08
18,A24U G36U U38G,0.02
19,A24U G33C C42U U43G,0.01
20,A25G C31U A39G,0.02
21,A24G U28G G35C,0.05
22,A25C G44A C45A,0.11
23,A24U C42A C45A,0.54
24,A24U U32C C42G G44C,0.03

row,Variant,self-cleavage
1,A25G G29A C31G G36C,0.03
2,A24U C31U G33C,0.01
3,A25C G35U C42A,0.03
4,A25C A26U U38G U43G,0.02
5,A25G A26G A39G,0.03
6,A25C G27A G29C U34G A41U,0.03
7,A24U U28G G40A,0.05
8,A24U G35A C46U,0
9,A25G A26G G33A,0.02
10,A24U A26U C46G,1.91
11,A24U G27U C45A,0.87
12,A25C G33C U43A,0.06
13,A24U G30A U34C C46G,0.06
14,A24G G33A C37A,0.07
15,A25C G27A G29A,0.91
16,A24U G27C A39U A41C C42A,0.04
17,A24U G29C G30C,0.14
18,A24G U34C G40C,0.01
19,A24U A26C G27C A41C,0.03
20,A25G G30A U38A G44U,0.11
21,A25G G30C G36C U38C G40U,0.04
22,A24G G27U G36U,0.02
23,A24G G30U U43A,0.2
24,A24G G27U G30C U38C,0.85

row,Variant,self-cleavage
1,A25C G36A C42U,0.24
2,A24U U28A G29C C31G,0.28
3,A24G G29C U38G G40U C42G,0.01
4,A24G G36A A39G G44A,0.61
5,A25G A26U G27A,0.72
6,A24U G29C U38G,0.01
7,A24U G40U U43A,0.1
8,A24U G29U U38C,1.53
9,A25C A26G U32C,0.03
10,A25C U34G G36A U38A A39U G44A,0
11,A25G G30A G35U,0.06
12,A25G G30C U34C G35C C42A,0
13,A25C A26C G36A G44U,0.25
14,A24G U28C G40C,0.28
15,A24U G40A G44U,0.13
16,A24G U32G G33U C46U,0.04
17,A24G G35U C46U,0.11
18,A24U U32C C46U,0.05
19,A25C U34C C37G,0.03
20,A25C A26C U28C C31U G33A U38C,0.04
21,A25C U32C G36A,0.01
22,A24U C31G G36A,0.04
23,A24U G29C C31U C37A,0.01
